Sequences and labels used below:
B1: LINE1-full (parent)
chain: UACGUAGGUGGUUUUCCCCUGAUAGUGCUAAGGGGGCCUGGAAGUUUGGACUGGGCAGAGCUCAACACAGCGUGGCAAAGUGGCUGUGGCUAGACUGCCUCUCUGGAUUCCUCGUCACUCAGCAGGGCAUCUCUGAGAGAAAUGCC

The source gives no read counts; variants with many changes may rest on few reads.

In this data set the parent is B1. The data set can be described thus: self-cleavage, relative activity (ratio to wild type); higher = more cleavage; in vitro, sequencing; the parent is a self-cleaving ribozyme.
On to U13C G54A G75A, for which the self-cleavage turned out to be 0.46.

With U13C G89A A94U, the self-cleavage came out at 0.02.

Regarding U13C A59G U102C A124G, the self-cleavage was 0.

For U13C A24G U26C U81C G83A, the self-cleavage is 0.48.

U13C A50G A124G: the self-cleavage is 0.23.

On to U13C A22G A92G U134C, for which the self-cleavage came to 0.53.

As for U13C G54A A140G, the self-cleavage came to 0.32.

With U13A A67G A94G, the self-cleavage stood at 0.

On to U13A U45C A69G, for which the self-cleavage turned out to be 0.27.

For U13C A42G U47C C90U, the self-cleavage came out at 0.15.

For the variant U13C C37U U62C U108C, the self-cleavage came out at 0.07.

For the variant U13C A24G A67C U85C G139U, the self-cleavage came to 0.25.

For the variant U13A A30U A67G U73C, the self-cleavage stood at 0.77.

Take U13C A67G C101U U134C: the self-cleavage was 0.52.

U12G U39G A94U U134C: the self-cleavage worked out at 0.29.

For U13C A65G U73C A77U, the self-cleavage came out at 0.

As to U13C A121C U130C, the self-cleavage is 1.71.

With U13C A42U A140C, the self-cleavage was 1.41.

As to U13C A78G U87C A94G, the self-cleavage came to 0.

For U13C C63A A94G A124U A140G A142G, the self-cleavage stood at 0.07.

For U13C A31G A43U U45A, the self-cleavage was 1.33.

With U13C C38U C66U, the self-cleavage is 0.09.

For the variant U13A A22G A64U U112C U119A, the self-cleavage stood at 0.27.

With U13C A67U A121G, the self-cleavage is 0.2.

On to U13C U14A G114A, for which the self-cleavage stood at 0.79.

Consider U12G A30G U100C, for which the self-cleavage worked out at 1.72.

With U13C A78U U132C, the self-cleavage was found to be 2.22.

With U13C A42G G139U, the self-cleavage amounted to 1.26.

U12G U46C U102A A142G: the self-cleavage worked out at 1.06.

As for U13C C61U A69U U87C, the self-cleavage was 0.18.

U12G A50U G126A: the self-cleavage was found to be 0.82.

In the case of U13C A64U G122U A129G, the self-cleavage was found to be 0.47.

On to U13C A124U A136G, for which the self-cleavage was 1.49.

For the variant U13A U46C U62C C71U A140G, the self-cleavage was determined as 0.04.

As for U12G U47C G53A U112C, the self-cleavage is 1.78.

U13A A43G A94G: the self-cleavage came to 0.2.

U13A A24G A50U A67U U130A A140G: the self-cleavage is 0.04.

Turning to U13C G72U U115C, the self-cleavage is 1.46.

On to U12G A78U U119A, for which the self-cleavage was 1.96.

Consider U13A A31G U62A U108C, for which the self-cleavage stood at 0.16.

Turning to U13C A43U U109A, the self-cleavage worked out at 1.24.

Turning to U12G A22G A59G U119C, the self-cleavage came out at 0.

In the case of U13C A69U U100A, the self-cleavage turned out to be 0.02.

As to U12G U87C U104A U132C, the self-cleavage stood at 0.19.

As for U13C C18U U20C A65G, the self-cleavage was 0.09.

Regarding U13A C28U C103A, the self-cleavage came out at 0.93.

In the case of U13C A67U C99U U119G, the self-cleavage worked out at 0.08.

In the case of U13A A31U U39C U62C A77G U104C, the self-cleavage was 0.

As to U12G A30G A121U, the self-cleavage was found to be 0.27.

Turning to U12G A43U U46C A138G, the self-cleavage was 0.38.

U13A A64U U96C U104A A142U: the self-cleavage stood at 0.05.

For U13A A22U U85C, the self-cleavage was found to be 0.28.

Take U12G A22G G54A: the self-cleavage amounted to 0.25.

Regarding U13C A67G U134G U143A, the self-cleavage was found to be 0.62.

In the case of U13C A69U A121G, the self-cleavage was determined as 0.08.

As for U13C A42G A43G A69U U134C, the self-cleavage was 0.

Consider U13C A42G U109A C118A, for which the self-cleavage turned out to be 0.91.

For U13C A59G U81C, the self-cleavage stood at 0.09.

In the case of U13C A42G U119A, the self-cleavage came to 1.16.

On to U12G A42G A141G, for which the self-cleavage worked out at 0.66.

Turning to U12G U14A G53A A78U U85A U91A, the self-cleavage is 0.19.

Turning to U12G C19U G33A A50G C84A, the self-cleavage came out at 0.07.

For U13C G40C A69U U81G U85C A124G A138G, the self-cleavage turned out to be 0.

For the variant U13C A22G G53U G127C A140G, the self-cleavage is 1.02.

For U13C U14A A31G A43U, the self-cleavage was 0.47.

With U13A U62C A141G, the self-cleavage came out at 0.01.

Regarding U12G A43U A107G, the self-cleavage was found to be 0.98.

As to U13A U47A U96C A129U, the self-cleavage amounted to 0.08.

As to U13C A50G U62C A124U, the self-cleavage is 0.26.

Turning to U12G A22G U29C, the self-cleavage was determined as 1.7.

Take U13C A142G U143C: the self-cleavage amounted to 1.82.

For the variant U12G A50G A77U, the self-cleavage is 0.87.

Take U12G U47A A79G A107G U112C A142G: the self-cleavage came out at 1.31.

U13C A42G U102A U130C: the self-cleavage was 1.39.

For the variant U13C A129G A142U, the self-cleavage was determined as 1.21.

Take U13A U87A U100C: the self-cleavage was found to be 0.21.

Take U12G G32A A140G: the self-cleavage stood at 1.39.

As for U13C A30G G55A, the self-cleavage was found to be 0.94.

For the variant U13C A57G A94U U130C, the self-cleavage is 0.53.

Consider U13C G32A A107G A121G, for which the self-cleavage is 1.12.

Consider U13C A50G G53C U112C, for which the self-cleavage came out at 0.

On to U13C A121U A138U C145U, for which the self-cleavage was found to be 0.79.

Consider U13C A69G G114A, for which the self-cleavage was 0.64.

Regarding U13C A30G U45C U81A, the self-cleavage was 0.88.

On to U13A U29C C51U C76U U100A A107G, for which the self-cleavage stood at 2.06.

In the case of U13A A22G A57C U132C U143C, the self-cleavage was 0.

For U12G A50G A59G A79U, the self-cleavage stood at 0.34.

As to U13C A42G A77G A140G, the self-cleavage turned out to be 1.97.

As for U13C G53A A121G, the self-cleavage amounted to 1.07.

U13C G60A U91C: the self-cleavage was found to be 0.02.

For the variant U13C A24U A42G A64G, the self-cleavage is 0.

For U13C C16U U104C A129G U134A U143C, the self-cleavage came to 1.84.

For U13C G54C U62A A64G, the self-cleavage was 0.56.

U13C A79G A117U: the self-cleavage worked out at 1.5.

Regarding U13A A24G U26A G80C U104C G105U, the self-cleavage was 0.83.

As to U12G U20C U23C C133U A142G, the self-cleavage worked out at 1.13.

Regarding U12G U29C U39C A43G G54A, the self-cleavage was 1.24.

As to U13A G88U A124G A136U, the self-cleavage was found to be 0.04.

Turning to U13C G49U A140G, the self-cleavage was 1.18.

With U13A A50G A142G, the self-cleavage came to 0.66.

In the case of U13A U15A U39C A79G U96C, the self-cleavage came to 0.

For U13A C38A U134A, the self-cleavage was found to be 0.98.

For the variant U13C G40C A43U A64G G86A U130C A140G, the self-cleavage was determined as 0.04.

As to U12G A67U A77G U104C, the self-cleavage amounted to 0.

As for U12G U85C U130A, the self-cleavage came out at 0.09.

On to U12G A67C A94U A129G U132C, for which the self-cleavage came out at 0.

For the variant U12G G35U A94U, the self-cleavage worked out at 0.44.

U12C U112C U119C: the self-cleavage came out at 0.

On to U13C A92G U104A A117G, for which the self-cleavage came to 0.2.

For U13C C17U A64G A142G, the self-cleavage is 0.28.

Turning to U12G U108C U132C, the self-cleavage worked out at 1.56.

Turning to U13C A43U U102A, the self-cleavage was 1.08.

Consider U12G U87C A129U, for which the self-cleavage turned out to be 1.1.

U13A A69G A121G: the self-cleavage worked out at 0.

Turning to U13A U29C A92G U130A, the self-cleavage stood at 0.12.

Take U13C A67G U73C: the self-cleavage is 1.67.

Turning to U13C A59G U104A, the self-cleavage came to 0.03.

U12G U52C A78G G83A: the self-cleavage worked out at 1.04.

As to U12G C37A A57U U81C A129G A138U, the self-cleavage was determined as 0.

As for U13C G34A U47C G93C, the self-cleavage was 0.

Consider U13C A43G U115C, for which the self-cleavage came out at 1.15.

In the case of U13C A78G A138G, the self-cleavage was found to be 1.91.

Turning to U12G A42G A94G, the self-cleavage was 0.

On to U13A A42G U100C, for which the self-cleavage was found to be 1.69.

Turning to U13C G54C A142U U143C, the self-cleavage came out at 0.35.

Regarding U13C A92G U104C, the self-cleavage is 0.

On to U13A A78U A92G U130C, for which the self-cleavage turned out to be 0.06.

For the variant U13C U14A A138G, the self-cleavage worked out at 1.17.

On to U12G U39C C68A A77G U81C, for which the self-cleavage was 0.19.

Consider U13A U46A A107G A129U, for which the self-cleavage turned out to be 1.04.

As for U13C G36A U132G U134G, the self-cleavage turned out to be 0.74.

Consider U13C C71U U108A, for which the self-cleavage worked out at 0.98.

As for U13C C37G A57G U96A U104G C113A, the self-cleavage came out at 0.1.

With U13A U47A C56U U132A, the self-cleavage is 0.09.

Take U12G A43G A117U: the self-cleavage was 1.03.

In the case of U13C A57G C84U A141G, the self-cleavage worked out at 0.11.

As to U13C G35U A94G A140G, the self-cleavage was 0.

Turning to U12G A22G G105U A129U, the self-cleavage was 1.46.

With U12G C98U U102C, the self-cleavage came to 0.32.

For U13C G32A A94G, the self-cleavage was found to be 0.36.

Take U13C A65G A69G U73G U108A: the self-cleavage worked out at 0.

Regarding U13C A57G U100A, the self-cleavage is 0.46.

Take U13A U15A A59U A79G G125A: the self-cleavage was 0.39.

Regarding U13C G40A U87C C123A, the self-cleavage worked out at 0.13.

For U13C G35U A64G A67U, the self-cleavage turned out to be 0.06.

As to U13C A42U A92G U130A, the self-cleavage came out at 0.04.

As to U12G U15C U85C, the self-cleavage is 0.

Consider U12G U29A U108C A140G, for which the self-cleavage amounted to 0.84.

As to U13C A30G G60A G75A, the self-cleavage was 0.28.

Regarding U13C G32U U39A U91C A92U A140G, the self-cleavage came to 0.22.

U12G U96C U134C: the self-cleavage was determined as 0.63.

As to U12C U115C A117G, the self-cleavage is 1.84.

U13C G34A U108C A138U A141G: the self-cleavage stood at 1.34.

On to U13C C38A A92G, for which the self-cleavage amounted to 0.12.

For the variant U13A U45C G53A, the self-cleavage was 2.09.

U13C A31G U39A A129U: the self-cleavage stood at 1.03.

In the case of U13C A65G U100C, the self-cleavage is 0.

U13C A30G G125U: the self-cleavage was found to be 1.5.

On to U13C A64G U102A G122U, for which the self-cleavage amounted to 0.31.

With U12G A42G U134A, the self-cleavage is 1.24.

For the variant U13C A67U A129U U134G, the self-cleavage turned out to be 0.08.

Consider U13C G21A U47C A59G G70C U108C, for which the self-cleavage was 0.

In the case of U13C C71U A78G, the self-cleavage stood at 0.3.

For U13C C19U U91C, the self-cleavage was determined as 0.78.

With U13C A67G U109A U130C, the self-cleavage turned out to be 0.

Turning to U13C A42G A57G, the self-cleavage was 0.

Take U13C A22G A121C: the self-cleavage came to 2.21.
